In PubChem BioAssay (NCI):
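Five compound concentrations were applied to cells in 96-well plates for 48 hours; endpoints were derived by simple linear interpolation of the resulting dose-response curve. Here, GI50 denotes the concentration required for 50% inhibition of growth. TGI: total growth inhibition.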

Test system: NCI-H322M lung
Experiment: NCI tumour cell line growth inhibition, 48 h

SMILES | GI50 | TGI
CCCCOc1ccc(NC(=O)c2sc3nc(C)ccc3c2N)cc1 | 6.55 µM | 27.8 µM
C=C1CC[C@@H]2[C@]3(C)COC(c4cn[nH]c4-c4ccccc4)O[C@@H]3CC[C@@]2(C)[C@@H]1C/C=C1/C(=O)OCC1O (some centres not stated) | 16.3 µM | 37.6 µM
O=c1[nH]n(C(=S)N/N=C/c2ccccc2Cl)c(=O)c2ccccc12 | 2.72 µM | 9.56 µM
N#CC1=C(c2cccs2)Nc2c(c(-c3ccccc3)nn2-c2ccccc2)C12C(=O)Nc1ccc(Br)cc12 (configuration not stated) | 19.4 µM | 47.6 µM
COc1ccc2[nH]c(O)c(N=NC(=O)COc3ccc(NC(=O)Nc4ccccc4)cc3)c2c1 | 17.4 µM | 46.2 µM
C=C(C)[C@@H]1CC[C@]2(C(=O)OC)CC[C@]3(C)[C@H](CC[C@@H]4[C@@]5(C)CC[C@H](N)C(C)(C)[C@@H]5CC[C@]43C)[C@@H]12 | 1.7 µM | 3.11 µM
